The campaign covered roughly 310,000 compounds. About 14,000 (4.5%) showed an effect of 50% or more. Effects have a minus sign here. The list shows a part of the results.
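Also: peak tail current of the secondary pulse compared with the same well before compound.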

In the assay the target is human ether-à-go-go-related gene (hERG) potassium channel (human, UniProt Q12809). The experiment in a line: primary screen, population patch clamp on CHO cells stably expressing hERG.
Chain of human ether-à-go-go-related gene (hERG) potassium channel (Q12809 whole entry, looked up): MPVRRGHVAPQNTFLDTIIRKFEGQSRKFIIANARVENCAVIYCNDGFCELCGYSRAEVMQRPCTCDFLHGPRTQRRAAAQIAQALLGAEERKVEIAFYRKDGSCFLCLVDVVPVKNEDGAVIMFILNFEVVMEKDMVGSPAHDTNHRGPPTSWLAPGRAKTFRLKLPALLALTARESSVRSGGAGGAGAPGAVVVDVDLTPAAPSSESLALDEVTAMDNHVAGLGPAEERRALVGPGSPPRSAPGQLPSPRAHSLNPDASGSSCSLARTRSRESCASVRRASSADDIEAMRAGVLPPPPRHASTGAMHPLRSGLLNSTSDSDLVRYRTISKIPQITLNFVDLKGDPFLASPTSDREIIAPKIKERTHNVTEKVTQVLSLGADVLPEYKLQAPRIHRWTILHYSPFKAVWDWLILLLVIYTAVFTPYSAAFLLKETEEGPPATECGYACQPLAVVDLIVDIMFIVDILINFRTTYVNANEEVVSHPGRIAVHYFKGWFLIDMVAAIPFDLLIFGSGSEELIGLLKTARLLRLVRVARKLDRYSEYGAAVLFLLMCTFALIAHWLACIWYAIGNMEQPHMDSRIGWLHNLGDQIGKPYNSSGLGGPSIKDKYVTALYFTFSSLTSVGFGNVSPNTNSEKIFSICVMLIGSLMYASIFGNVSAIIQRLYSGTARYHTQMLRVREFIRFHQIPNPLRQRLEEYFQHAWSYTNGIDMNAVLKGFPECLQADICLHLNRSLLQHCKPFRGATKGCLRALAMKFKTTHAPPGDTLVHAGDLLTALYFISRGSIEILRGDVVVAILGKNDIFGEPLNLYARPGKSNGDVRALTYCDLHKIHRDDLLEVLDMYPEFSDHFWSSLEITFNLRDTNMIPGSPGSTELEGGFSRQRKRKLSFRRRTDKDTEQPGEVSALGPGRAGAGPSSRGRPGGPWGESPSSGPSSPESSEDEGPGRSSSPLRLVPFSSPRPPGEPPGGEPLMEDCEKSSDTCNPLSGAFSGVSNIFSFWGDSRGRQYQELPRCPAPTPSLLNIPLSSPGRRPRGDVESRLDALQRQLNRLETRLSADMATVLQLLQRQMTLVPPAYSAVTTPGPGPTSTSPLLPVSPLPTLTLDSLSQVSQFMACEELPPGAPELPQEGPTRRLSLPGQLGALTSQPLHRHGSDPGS
In the case of `CCOC(=O)C1(Cc2ccccc2)CCN(Cc2cc(=O)c3ccccc3[nH]2)CC1`, the “hERG current change (%, negative = inhibition) at 10uM” value worked out at 13.5%.
On to `O=C(Nc1ccc(O)c(-c2nc3ccccc3o2)c1)C1(c2ccc(Br)cc2)CCCC1`, for which the “hERG current change (%, negative = inhibition) at 10uM” value was 5.36%.
Regarding `COc1ccc(N2CC(C(=O)N/N=C/c3ccc(C)cc3)CC2=O)cc1` (stereo not drawn), the “hERG current change (%, negative = inhibition) at 10uM” value was -18.8%.
As for `COCc1c(C(=O)N/N=C/c2ccc(C)o2)nnn1-c1nonc1N`, the figure is 17.6%; as for `COc1ccc(/C=C/C(=O)OCC(=O)N2CCc3ccccc32)cc1`, -0.65%; as for `CCOC(=O)CSc1ncc(OC)c(Sc2ccc(OC)cc2)n1`, -15.5%.
As for `O=C(NNC(=O)c1c(F)cccc1F)c1sccc1-n1cccc1`, the “hERG current change (%, negative = inhibition) at 10uM” value is reported as 11%.
As for `CCC1(c2ccc(F)cc2)NC(=O)N(CC(=O)Nc2ccccc2C)C1=O` (stereo not drawn), the figure is 4.76%; as for `O=C(CSC1CN(C(c2ccccc2)c2ccccc2)C1)N/N=C/c1ccc(Cl)cc1Cl`, 12.8%.
`CCCC(C(=O)Nc1ccc(S(=O)(=O)N2CCOCC2)cc1)c1ccccc1` (stereo not drawn): the “hERG current change (%, negative = inhibition) at 10uM” value is reported as -13.7%.
With `COCCSc1nnc(NC(=O)CSCc2ccccc2)s1`, the “hERG current change (%, negative = inhibition) at 10uM” value was 7.34%.
In the case of `CC(=O)N1c2ccc(S(=O)(=O)NCC3CCC(C(=O)NCc4ccco4)CC3)cc2CC1C` (stereo not drawn), the “hERG current change (%, negative = inhibition) at 10uM” value is on record as 17%.
`CC(C)(Oc1ccc(Cl)cc1)C(=O)OCC(=O)N1CCN(c2ccccc2)CC1`: the “hERG current change (%, negative = inhibition) at 10uM” value is recorded as -7.02%.
With `CC(C)C1Oc2ccccc2N(CC(=O)N(C)C2CCCCC2)C1=O` (stereo not drawn), the “hERG current change (%, negative = inhibition) at 10uM” value is -10.1%.
On to `CCCCOC(=O)C1=C(N)OC2=C(C(=O)CCC2)[C@]12C(=O)N(C)c1ccccc12`, for which the “hERG current change (%, negative = inhibition) at 10uM” value is -5.2%.
Then `CN1CCN(S(=O)(=O)c2cccc(C(=O)Nc3sc4c(c3C(N)=O)CCCC4)c2)CC1`, with -9.38%.
As for `CCCCn1c(N)c(N(CCC(C)C)C(=O)CC2OC(=O)c3ccccc32)c(=O)[nH]c1=O` (stereo not drawn), the “hERG current change (%, negative = inhibition) at 10uM” value came out at 2.07%.
For the molecule `CC(NC(=O)C(C)N1C(=O)C2C3CC(C(Br)C3Br)C2C1=O)c1ccccc1` (stereo not drawn), the “hERG current change (%, negative = inhibition) at 10uM” value is -4.14%.
Turning to `N#Cc1ccccc1NC(=O)C1CC(=O)N(c2ccc3c4c(cccc24)CC3)C1` (stereo not drawn), the “hERG current change (%, negative = inhibition) at 10uM” value is 1.8%.
As for `Cc1c(C)c2ccc(OCC(=O)N(C)C)c(C)c2oc1=O`, the figure is -6.44%; as for `C=CCSc1nnc(NC(=O)c2cn(CC)c3nc(C)ccc3c2=O)s1`, -9.96%; as for `O=C(COc1ccc(S(=O)(=O)NCc2ccccc2)cc1)NCC1CCCO1` (stereo not drawn), -1.71%.
As for `COc1ccccc1CNC(=O)c1cc(-c2ccncc2)nc2c(Cl)cccc12`, the figure is 10.5%; as for `CC1CCCC(C)N1C(=O)CSc1nnc(-c2ccco2)n1C` (stereo not drawn), 5.84%; as for `Cc1cc2cc(OCc3ccccc3)ccc2n1C`, 18%.
As to `CCC(C)(C)C1CCC2(CC1)NC(=O)N(CC(=O)Nc1cc(C(F)(F)F)ccc1N1CCOCC1)C2=O` (stereo not drawn), the “hERG current change (%, negative = inhibition) at 10uM” value is 16.7%.
Then `O=C(COc1cc2oc(=O)cc(-c3ccccc3)c2cc1Cl)NCCN1CCOCC1`, with 2.07%; and `COc1cc2c(cc1OC)C(c1cccc([N+](=O)[O-])c1)N(C(=O)c1ccccc1C(=O)O)CC2` (stereo not drawn), with 18.1%; and `Cn1c(CCN2CCOCC2)nc2cc(NS(=O)(=O)c3ccccc3)ccc21`, with -1.84%.
Consider `CCOC(=O)C1CCCN(C(=O)CSc2nccn2C)C1` (stereo not drawn), for which the “hERG current change (%, negative = inhibition) at 10uM” value is -0.344%.
As for `NNC(=O)c1sc(-c2ccc(Cl)cc2)cc1N`, the figure is 20.2%; as for `CC(=O)c1cccc(NC(=O)C2CCCN2S(=O)(=O)c2cccc3cccnc23)c1` (stereo not drawn), -10.8%.
Regarding `Cc1sc2c(c1C)C(=O)NC(c1cccc(O)c1)N2` (stereo not drawn), the “hERG current change (%, negative = inhibition) at 10uM” value came out at 19.7%.
For `CC(C)(C)NC(=S)NC1CC1`, the “hERG current change (%, negative = inhibition) at 10uM” value worked out at 14.8%.
Then `Cc1cc(Cl)ccc1N(CC(=O)N=Nc1c(O)[nH]c2ccccc12)S(C)(=O)=O`, with -13.2%; and `COc1ccc(OC)c(-n2cnc3cc(C(=O)O)ccc32)c1`, with 3.06%.
As for `Cc1cccc(C)c1N1CCN(S(=O)(=O)c2ccccc2)CC1`, the figure is 11.4%; as for `CCOc1ccc(S(=O)(=O)N2CCN(c3ccccc3OC)CC2)c2cccnc12`, -14.6%.
As for `O=C(O)c1ccccc1NCc1ccco1`, the figure is 17.3%; as for `O=C(Cc1ccc(Cl)cc1)NC(=S)Nc1ccccc1N1CCOCC1`, -6.41%; as for `CCOCCn1c(=NC(=O)c2cc(Cl)sc2Cl)sc2cc(S(N)(=O)=O)ccc21`, 10.4%.
As to `CCc1ccc(Oc2nnnn2-c2ccc(C(N)=O)cc2)cc1`, the “hERG current change (%, negative = inhibition) at 10uM” value is reported as 16.5%.
In the case of `Cc1ccc(CCN=c2c([N+](=O)[O-])nn(-c3ccccc3)n2O)cc1`, the “hERG current change (%, negative = inhibition) at 10uM” value is 17%.
For `O=C1C=C(c2ccc3ccccc3c2)C[C@@H](c2ccc(F)cc2)C1`, the “hERG current change (%, negative = inhibition) at 10uM” value was -0.559%.
On to `CCOc1ccc(-c2nc(N)ncc2-c2ccc(Cl)cc2)c(O)c1`, for which the “hERG current change (%, negative = inhibition) at 10uM” value was 10.8%.
Then `CCC(NC(=O)CCc1c(C)c2cc3c(C)c(C)oc3cc2oc1=O)C(=O)N[C@@H](Cc1ccccc1)C(=O)O` (stereo partly drawn), with 18.3%; and `CN(Cc1ncc[nH]1)Cc1cn(-c2ccccc2)nc1-c1ccc2c(c1)OCO2`, with -60.1%; and `CCCCNC(=O)N1CCCN(c2ccc(C#N)cn2)CC1`, with -49.8%.
Turning to `c1ccc2c(c1)CCCN2Cc1nnnn1C1CCCC1`, the “hERG current change (%, negative = inhibition) at 10uM” value is given as -3.84%.
As for `COc1ccc(CNC(=O)Cn2cncn2)cc1OC`, the figure is 6.37%; as for `CCc1ccc(-c2cc(C)no2)cc1S(=O)(=O)N1CCN(c2ccccc2F)CC1`, 15.7%; as for `O=C(Nc1c(-c2ccccc2)nc2ccccn12)c1ccccc1`, 12.4%.
Then `Cc1nn2c(=O)cc(CSCC(=O)Nc3ccccc3F)nc2s1`, with 14.4%.
Then `COc1ccc(NC2=C(Cl)C(=O)N(c3ccccc3)C2=O)c(OC)c1`, with 15.5%; and `O=C(c1ccco1)N(Cc1ccco1)Cc1cc2ccccc2[nH]c1=O`, with -17.9%.
As for `CCC(C)[C@H](NC(=O)NCc1ccc(OC)c(OC)c1)C(=O)O` (stereo partly drawn), the “hERG current change (%, negative = inhibition) at 10uM” value was determined as 7.82%.
As for `CC(C)COc1cccc(C(=O)N(CC(=O)Nc2ccccc2C(F)(F)F)Cc2ccco2)c1`, the figure is -0.756%.
Consider `CCCC(=O)Nc1ccc(C(=O)NN2C(=O)c3ccccc3C2=O)cc1`, for which the “hERG current change (%, negative = inhibition) at 10uM” value was determined as 1.91%.
Then `Cc1ccc(SC(C)C(=O)NCc2ccc(F)cc2)cc1` (stereo not drawn), with -2.86%; and `Cc1ccc(S(=O)(=O)NCC(=O)OCC(=O)Nc2ncc(Cl)cc2Cl)cc1`, with -6%; and `Cc1csc(CN(C)C(=O)CC2C(=O)NCCN2Cc2ccc(F)c(F)c2)n1` (stereo not drawn), with 6.02%.
Regarding `CC(=O)c1c(C)[nH]c(C(=O)Nc2ccc(C)cn2)c1C`, the “hERG current change (%, negative = inhibition) at 10uM” value turned out to be 1.21%.
As for `CCC(C)N(C(=O)CSc1nnc(-c2ccco2)n1C)C1CCS(=O)(=O)C1` (stereo not drawn), the figure is -12.9%; as for `COc1ccccc1-c1csc2ncnc(Sc3nnnn3C)c12`, -13.8%.
As to `CCCC(=O)C1=C(N2CCCCC2)CC(C)(C)C(C(=O)OC)C1=O` (stereo not drawn), the “hERG current change (%, negative = inhibition) at 10uM” value is listed as 28%.
As to `CCCCCCNS(=O)(=O)c1ccc(Cl)s1`, the “hERG current change (%, negative = inhibition) at 10uM” value was -12.9%.
`O=c1c2ccccc2[nH]c(=S)n1CCN1CCc2ccccc2C1`: the “hERG current change (%, negative = inhibition) at 10uM” value was -33.7%.
As for `COc1ccc(-c2cc(C)no2)cc1S(=O)(=O)NCc1ccc(OC(C)C)cc1`, the figure is -16.9%.
Then `O=C1NC(=O)N(Cc2ccccc2Cl)C(=O)/C1=C/N1CCOCC1`, with -9.59%; and `Cc1cc(C)cc(NC(=O)Cn2nnc(C(=O)NCc3cccs3)c2N)c1`, with 4.61%; and `CCCCCCCC[n+]1cccc(C(=O)N(CC)CC)c1.[Br-]`, with 13%.
Consider `COc1ccccc1N(C)S(=O)(=O)c1ccc(C(=O)NC2CCCCCC2)cc1`, for which the “hERG current change (%, negative = inhibition) at 10uM” value is reported as -11.4%.
Turning to `O=C(Nc1ccc(Br)cc1)c1ccc(F)c(S(=O)(=O)N2CCN(c3ccccn3)CC2)c1`, the “hERG current change (%, negative = inhibition) at 10uM” value is given as 20.1%.
Then `CCSc1nnc(NC(=O)CSc2nncc(=O)n2N)s1`, with 20.2%; and `CCOc1ccc(C(=O)N2CCc3cc(OC)c(OC)cc3C2)cc1OCC`, with 2.45%.
Then `CC(=O)c1cnc(-c2ccccn2)s1`, with 37.8%; and `COc1cccc(CC(=O)Nc2ccc(S(=O)(=O)N3CCOCC3)cc2)c1`, with -6.18%; and `Cc1ccc(S(=O)(=O)NCCCN2CCOCC2)c(C)c1`, with 11.1%.
As for `CCN(CC)c1ccc(C(=O)n2cnc3ccccc32)cc1`, the figure is -19.6%.
For `CCSc1nnc(NC(=O)c2cc(C)nc3ccccc23)s1`, the “hERG current change (%, negative = inhibition) at 10uM” value is listed as -12.3%.
Turning to `O=C(Nc1nc(-c2ccccc2)cs1)c1ccco1`, the “hERG current change (%, negative = inhibition) at 10uM” value is reported as -47.8%.
Then `CC(C(=O)Nc1nnc(C2CC2)s1)N1C(=O)C2CC=CCC2C1=O` (stereo not drawn), with -2.62%.
Then `CC(=O)Nc1nnc(SCC(=O)NC2CC2)s1`, with 13.6%.
Take `COc1ccc(Cc2nc3c4c(ncn3n2)Oc2ccc3ccccc3c2C4c2ccc(OC)c(OC)c2)cc1` (stereo not drawn): the “hERG current change (%, negative = inhibition) at 10uM” value came to 8.46%.
Regarding `Cc1ccc2oc(-c3ccc(C)c(NC(=S)NC(=O)c4cccs4)c3)nc2c1`, the “hERG current change (%, negative = inhibition) at 10uM” value was determined as 27.6%.
Then `CN(CC(=O)Nc1cccc(F)c1)C(=O)CCCNC(=O)c1ccc(Cl)cc1`, with -36.7%; and `O=C(NC1CCN(S(=O)(=O)c2cccc(Cl)c2)CC1)C1CCCCC1`, with 14.5%.

For the origin of these results see publication PMC4336329 (PLoS ONE, 2015).
